# Reference: ChEMBL document CHEMBL4888484, “Replenishing the malaria drug discovery pipeline: Screening and hit evaluation of the MMV Hit Generation Library 1 (HGL1) against asexual blood stage Plasmodium falciparum ,using a nano luciferase reporter read-out” (2022)
# In all, about 150,000 compounds went through this assay and about 540 (0.36%) showed an effect of 50% or more. The list shows a part of the results.
# Test system: Plasmodium falciparum
# Test: Primary screen in NF54 nanoGlo assay, in single point, at 2uM, 72h; a lower Z score goes with more inhibition
# Assay type: functional, Erythrocyte
# Conditions: timepoint 72 hour
Structure (SMILES),% Inhibition,Z score
C=CCc1cc(C(=O)N2C[C@@H]3CN(CC)C[C@]3(C(=O)O)C2)ccc1OC,-6%,0.76
CC1CN2CCCC2CN1S(=O)(=O)N1CCCCC1 (stereo not drawn),2%,-0.3
CC(C(=O)NC(c1cccnc1)C1CCOCC1)n1cccn1 (stereo not drawn),-1%,0.28
O=C(NCc1ccc(Cl)cc1)c1cc(OCc2ccccc2)no1,-7%,1.38
CO[C@H]1CCN(C(=O)c2nn3cc(C)cnc3c2Cl)C1,-17%,1.66
Cc1nc(C)c(F)c(N[C@H]2CCc3nc(C(C)(C)C)cn3C2)n1,-3%,0.24
O=C(NCc1ccccn1)c1ccc(CN2CCOCC2)cc1,35%,-3.98
Cc1cc(C(=O)N2CCc3c(c(C(=O)NCc4nccs4)nn3Cc3ccccc3)C2)nc(C)n1,-7%,0.81
O=c1[nH]c([C@H]2CCC(F)(F)C2)nc2cc(F)ccc12,-19%,1.92
COCCOc1ccc2c(c1)NC(=O)C[C@H]2c1ccc(Cl)s1,-16%,2.79
O=C1NCCC[C@@H]1NC(=O)[C@@H]1CN(C(=O)C2CCCCC2)CCN1C(=O)Nc1ccccc1,36%,-1.3
Cc1[nH]nc(C(=O)N2CCC[C@@H]2CF)c1C,-9%,1.29
O=C(Nc1cnn2c1NCCC2)c1ccc(OCC(=O)N2CCCCC2)cc1,-14%,1.33
CC[C@@]1(C2CCNCC2)NC(=O)N(C/C=C/c2ccccc2)C1=O,-4%,0.6
CC(C)O[C@H]1C[C@@H](NC(=O)c2cnc(-c3cnn(C)c3)s2)C1,-12%,1.49
CC(C)(C)OC(=O)N1CC([C@@H]2CCCNC2=O)C1,-10%,1.73
Cc1nc[nH]c1-c1nccn1Cc1scnc1-c1ccccc1,-12%,1.54
COc1ccc(OC)c(S(=O)(=O)N2C[C@H](CN(C)C)C3(CCCCC3)C2)c1,9%,-1.34
CCOCC(C)CS(=O)(=O)NCCCOCC1CCCO1 (stereo not drawn),-7%,1.43
O=C(NC[C@H]1CCCO1)Nc1ccnn1C1CCCC1,5%,-0.73
Cc1cc(O)ccc1C(=O)NC[C@@H](C(C)C)N(C)C,1%,-0.18
N#Cc1cccc(NC(=O)Cn2c(=O)n(CCc3cccs3)c(=O)c3ccccc32)c1,30%,-3.37
Clc1cnn(Cc2nc(-c3ccoc3)no2)c1,-21%,2.91
CCOc1cccc2[nH]cc(CCNC(=O)Nc3ccc4[nH]c(=O)[nH]c4c3)c12,3%,-0.29
